# Measured values as given in the supplement of paper PMC9446081.
# About 220 (0.56%) of roughly 39,000 compounds showed activity. This is one part of the list.
# System: Escherichia coli K-12 BW25113
# Experiment: relative growth (OD600 normalised to plate interquartile mean) (fraction); higher = less growth inhibition, active = 0.2 or less
# Details: 50 µM; LB; incubation time: overnight (16-24 h)
# 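Also: static incubation at 37 °C against the wild-type strain, values averaged over two biological replicates.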
row,Structure (SMILES),relative growth
1,Cc1ccc(S(=O)(=O)N(C)C[C@@H]2Oc3ccc(NS(=O)(=O)c4cccs4)cc3C(=O)N([C@H](C)CO)C[C@@H]2C)cc1,inactive: 1.02
2,C[C@@H]1CN([C@@H](C)CO)C(=O)c2cccc(NS(=O)(=O)c3cn(C)cn3)c2O[C@H]1CN(C)C(=O)Nc1ccc(F)cc1,inactive: 0.988
3,CC(C)(O)CC(=O)NCCn1ccc2ncnc(Nc3ccc(Oc4cccc(C(F)(F)F)c4)c(Cl)c3)c21,inactive: 0.847
4,C[C@H]1CN([C@@H](C)CO)C(=O)CCCn2cc(nn2)CO[C@H]1CN(C)C(=O)Nc1ccc(N2CCCCC2)cc1,inactive: 1.01
5,C[C@H]1CN([C@@H](C)CO)C(=O)CCCn2cc(nn2)CO[C@@H]1CN(C)S(=O)(=O)c1cccc(C#N)c1,inactive: 0.987
6,COc1cccc(S(=O)(=O)Nc2ccc3c(c2)C(=O)N(C)C[C@H](OC)[C@@H](C)CN(C(=O)Cc2cccnc2)[C@@H](C)CO3)c1,inactive: 1.01
7,Cc1cccc(-c2nc3ccccc3n2CCC(C)C)c1,inactive: 1.01
8,C[C@@H]1CCCCO[C@H](CN(C)S(=O)(=O)c2cccs2)[C@@H](C)CN([C@@H](C)CO)C(=O)c2cc(NC(=O)Nc3ccccc3)ccc2O1,inactive: 1.04
9,C[C@@H]1CN([C@H](C)CO)C(=O)c2cc(NC(=O)Cc3ccccc3)ccc2O[C@@H]1CN(C)Cc1ccc(Oc2ccccc2)cc1,inactive: 1.01
10,C[C@@H]1CN([C@H](C)CO)C(=O)c2ccccc2-c2ccccc2CO[C@@H]1CN(C)C(=O)Nc1ccc(-c2ccccc2)cc1,inactive: 1.02
11,COc1ccc(NC(=O)Nc2ccc3c(c2)CC(=O)N([C@@H](C)CO)C[C@H](C)[C@H](CN(C)S(C)(=O)=O)O3)cc1,inactive: 1.05
12,O=c1c(O)c(-c2ccc(O)c(O)c2)oc2cc(O)ccc12,inactive: 0.825
13,CO[C@H]1CN(C)C(=O)c2ccc(NC(C)=O)cc2OC[C@@H](C)N(S(=O)(=O)c2cn(C)cn2)C[C@@H]1C,inactive: 1.01
14,NCc1cccc(-c2ccco2)c1,inactive: 0.983
15,CNS(=O)(=O)Cc1ccc2[nH]cc(CCN(C)C)c2c1,inactive: 0.993
16,COc1cccc(C#Cc2ccc3c(c2)O[C@@H](CN(C)S(=O)(=O)c2ccccc2F)[C@@H](C)CN([C@@H](C)CO)S3(=O)=O)c1,inactive: 1.01
17,C[C@@H]1CCCCO[C@H](CN(C)C(=O)Nc2ccc(C(F)(F)F)cc2)[C@H](C)CN([C@H](C)CO)C(=O)c2cc(NC(=O)Nc3ccccc3)ccc2O1,inactive: 1.01
18,O=C(NCC1(c2nc(-c3ccccc3)cs2)CCOCC1)c1cccc(-c2noc(C(F)(F)F)n2)c1,inactive: 0.969
19,COc1ccc(S(=O)(=O)Nc2ccc3c(c2)C(=O)N([C@H](C)CO)C[C@H](C)[C@@H](CN(C)Cc2ccccc2)OCCCC[C@@H](C)O3)cc1,inactive: 0.877
20,COC(=O)C(CC#Cc1ccc2c(c1)[C@]1(C(=O)N2)[C@H](c2ccc(OCCO)cc2)N2[C@H](c3ccccc3)[C@H](c3ccccc3)OC(=O)[C@H]2[C@@H]1C(=O)N1CCc2cc(OC)c(OC)cc2C1)C(=O)OC,inactive: 1.09
21,COCC(=O)N(C)C[C@@H]1Oc2cc(C#CC(C)(C)O)ccc2S(=O)(=O)N([C@H](C)CO)C[C@H]1C,inactive: 0.992
22,C[C@@H]1CN([C@@H](C)CO)C(=O)c2cc(NS(=O)(=O)c3cccs3)ccc2O[C@H]1CN(C)S(=O)(=O)c1ccc(F)cc1,inactive: 1.01

row,Structure (SMILES),relative growth
1,C#CCN(O[C@@H](/C=C/[C@@H](O)CCn1cc(-c2ccc(C(=O)NO)s2)nn1)C1CC1)[C@@H](Cc1ccccc1)C(=O)OC,inactive: 1
2,COCCOC(=O)N1C(=O)[C@@]2(c3ccccc31)[C@H](C(=O)N1CCCCCCC1)[C@H]1C(=O)O[C@H](c3ccccc3)[C@H](c3ccccc3)N1[C@@H]2c1ccccc1OCCO,inactive: 1.01
3,Nc1nc(=O)c2ncn([C@@H]3O[C@H](CO)[C@@H](O)[C@H]3O)c2[nH]1,inactive: 1.03
4,C[C@H](CO)N1C[C@H](C)[C@@H](CN(C)C(=O)Nc2ccc3c(c2)OCO3)OCCCC[C@H](C)Oc2ccc(NC(=O)Cc3ccccc3)cc2C1=O,inactive: 1.03
5,O=C(CCCl)NCc1ccccc1,inactive: 1.1
6,COc1cccc(S(=O)(=O)N2[C@@H]3CC[C@@H](C3)[C@H]2c2nc3cccc(OCc4ccc(F)cc4)c3[nH]2)c1,inactive: 1.06
7,CC12CCC3c4ccc(O)cc4CCC3C1CCC2O (centres undefined),inactive: 1.01
8,O=C1[C@@H]2CCCN2C(=O)[C@@H]2CCCN12,inactive: 1.01
9,C=CCC(N)(CC=C)c1ccc(C)cc1,inactive: 1.02
10,CN1CCN([C@@H]2CCN(S(C)(=O)=O)[C@H]2Cc2cnn(C)c2)CC1,inactive: 1.03
11,O=C(C[C@H]1C[C@@H]2c3cc(NC(=O)Cc4ccncc4)ccc3O[C@@H]2[C@H](CO)O1)NCCN1CCCCC1,inactive: 0.986
12,C[C@@H]1CCCCO[C@@H](CN(C)C(=O)Nc2ccc3c(c2)OCO3)[C@@H](C)CN([C@H](C)CO)C(=O)c2cc(NC(=O)Nc3ccc(C(F)(F)F)cc3)ccc2O1,inactive: 0.988
13,C[C@H](CO)N1C[C@H](C)[C@H](CN(C)Cc2ccc(C(=O)Nc3ccccc3N)cc2)Oc2ccc(NC(=O)Cn3cnnn3)cc2C1=O,inactive: 1
14,NC(=O)[C@H]1CCN(c2ncnc(N)c2F)C[C@@H]1N1CCC[C@@H](Nc2cc(Cl)cc(C(F)(F)F)c2)C1=O,inactive: 0.985
15,COCC(=O)N1C[C@@H](C)[C@@H](OC)CN(C)C(=O)c2cc(NC(=O)Nc3cccc(F)c3)ccc2OC[C@@H]1C,inactive: 1
16,C[C@H](CO)N1C[C@H](C)[C@@H](CN(C)C(=O)c2ccccc2)OCCCC[C@H](C)Oc2ccc(NC(=O)C3CCCCC3)cc2C1=O,inactive: 0.988
17,CSCc1nc(=O)cc(C(=O)O)[nH]1,inactive: 0.996
18,C[C@H]1CN([C@@H](C)CO)C(=O)c2cccc(NC(=O)C3CCOCC3)c2O[C@H]1CN(C)C(=O)Nc1ccccc1,inactive: 0.901
19,C[C@@H]1CN([C@H](C)CO)C(=O)c2cc(NS(=O)(=O)c3ccc(F)cc3)ccc2O[C@H]1CN(C)Cc1ccc(Oc2ccccc2)cc1,inactive: 1.03
20,C[C@@H]1CN([C@H](C)CO)C(=O)c2cc(NC(=O)CCN3CCOCC3)ccc2O[C@@H]1CN(C)C(=O)Nc1ccccc1,inactive: 0.992
21,CCOC(=O)CSc1nc(=O)cc(C)[nH]1,inactive: 0.987
22,Cc1ccc(S(=O)(=O)Nc2cccc3c2O[C@@H](CN(C)S(=O)(=O)c2ccccc2)[C@@H](C)CN([C@H](C)CO)C3=O)cc1,inactive: 1.01

row,Structure (SMILES),relative growth
1,CC(C)(C)OC(=O)N1C[C@H]2C[C@@H]1C(=O)O2,inactive: 0.994
2,O=S(=O)(NCC[C@@H]1CC[C@H](NS(=O)(=O)c2ccccc2Cl)[C@H](CO)O1)c1ccc(Cl)cc1,inactive: 0.999
3,Cc1ccc(C2OC(CO)C(O)C(O)C2O)cc1Cc1ccc(-c2ccc(F)cc2)s1 (centres undefined),inactive: 0.98
4,Cc1noc(C)c1S(=O)(=O)Nc1ccc2c(c1)CC(=O)N([C@H](C)CO)C[C@H](C)[C@@H](CN(C)S(=O)(=O)c1cn(C)cn1)O2,inactive: 0.999
5,Cc1ccc(F)c(S(=O)(=O)N2[C@@H]3CC[C@@H](C3)[C@H]2c2nc3cccc(OCc4ccc(F)cc4)c3[nH]2)c1,inactive: 1
6,COc1ccc(C2COc3c(ccc(O)c3OC)C2)c(OC)c1O (centres undefined),inactive: 1.06
7,C[C@@H]1CN([C@@H](C)CO)C(=O)Cc2cc(NS(=O)(=O)c3ccccc3)ccc2O[C@H]1CN(C)Cc1ccc(Oc2ccccc2)cc1,inactive: 0.969
8,C[C@@H]1CN([C@H](C)CO)C(=O)c2cccc(NS(C)(=O)=O)c2O[C@H]1CN(C)S(=O)(=O)c1ccccc1,inactive: 0.986
9,C[C@H](CO)N1C[C@H](C)[C@H](CN(C)C(=O)Cc2cccnc2)Oc2cc(-c3cncnc3)ccc2S1(=O)=O,inactive: 0.996
10,NS(=O)(=O)c1cc2c(cc1Cl)N=CNS2(=O)=O,inactive: 1.01
11,Cc1noc(C)c1NC(=O)Nc1ccc2c(c1)C(=O)N([C@H](C)CO)C[C@@H](C)[C@H](CN(C)Cc1ccc3c(c1)OCO3)OCCCC[C@@H](C)O2,inactive: 1.01
12,CN(C)C(=O)C[C@@H]1C=C[C@@H](NC(=O)C2CC2)[C@H](CO)O1,inactive: 1.01
13,Cc1n[nH]c(N/N=C/c2ccccn2)nc1=O,inactive: 0.464
14,CC(=O)NCCCC[C@@H]1NC(=O)[C@@H]2C[C@H](C(=O)O)[C@H](c3ccc(O)cc3)N2C1=O,inactive: 0.968
15,Cc1ccc(S(=O)(=O)Nc2ccc3c(c2)C(=O)N([C@@H](C)CO)C[C@H](C)[C@H](CN(C)Cc2ccncc2)OCCCC[C@H](C)O3)cc1,inactive: 0.991
16,Cc1[nH]c(=O)c(C(=O)O)c2c1CCC2,inactive: 0.994
17,COCC(=O)N1C[C@H](C)[C@H](OC)CN(C)C(=O)c2ccc(NC(=O)c3ccc(OC)cc3)cc2OC[C@@H]1C,inactive: 1.02
18,C[C@H](CO)N1C[C@H](C)[C@@H](CN(C)S(=O)(=O)c2cccs2)Oc2ccc(NC(=O)CCC(F)(F)F)cc2CC1=O,inactive: 0.987
19,C[C@@H]1CN([C@@H](C)CO)S(=O)(=O)c2ccc(-c3cccnc3)cc2O[C@H]1CN(C)C(=O)NC1CCCC1,inactive: 0.987
20,Cc1ccc(S(=O)(=O)N(C)C[C@@H]2OCCCC[C@H](C)Oc3ccc(NC(=O)CCCCCC(=O)Nc4ccccc4N)cc3C(=O)N([C@H](C)CO)C[C@@H]2C)cc1,inactive: 1.02
